Test results published in paper PMC5836133.
This is one part of the list. At the low end of the ranking the order means little.

System: T1, GST-NbGlk1(82-244)
T1 sequence: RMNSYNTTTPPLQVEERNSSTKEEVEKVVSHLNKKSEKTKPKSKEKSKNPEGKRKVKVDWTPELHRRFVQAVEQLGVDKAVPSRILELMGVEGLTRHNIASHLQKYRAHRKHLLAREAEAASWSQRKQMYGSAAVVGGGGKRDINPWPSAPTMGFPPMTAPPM
Experiment: protein-binding microarray;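 further: rank-based score ranging −0.5 to +0.5 with E above 0.45 taken as significant binding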
Conditions: NbGlk1 is a Golden2-like transcription factor of Nicotiana benthamiana; high values mean tight binding; most listed sequences are background and not binding sites; double strand, one strand shown

Sequence	binding signal [E-score]
AACACGAA	0.118
AACAACTC	-0.0157
CACACGGC	-0.218
AAATGGTA	0.0758
AAAGATTG	0.335
AGTTTAAT	-0.00225
AAGGCACG	-0.29
AACGTACG	-0.104
ATAGACAT	0.0432
ATCGTGCA	0.128
AGCATGAG	-0.215
AACGATAA	0.119
CACCTGGA	-0.129
CAAACCAA	0.0941
ACGGTGAG	-0.122
ACTCACGG	0.0204
AATTGAGT	-0.0253
AGGTCGTG	-0.13
ACTTTACA	0.0432
AGACTTGC	-0.186
CACCGCAC	0.0411
ATAGGATG	-0.0678
AGAGTCTG	-0.18
AAGTGTTA	-0.00912
ACTAAGTA	-0.00376

Sequence	binding signal [E-score]
AGGCTGAA	-0.276
AATAATCG	0.162
ATTATCAG	0.197
ACTAATTA	0.112
AGTAGTGC	-0.117
AGTCCTAC	-0.179
CACCATCC	-0.111
ATAAAGCC	-0.16
AGAAACAG	-0.00113
ACCCAGCA	-0.257
ATTCAGAA	0.099
ATCGCCCC	0.191
ACAACCAC	-0.115
ACTAATCC	-0.00427
ACGGCACA	0.0429
CACCCTCA	-0.0729
ACTGAGTG	-0.0461
ATCGACAC	0.0325
CACTCGGC	-0.204
CAAAGTAG	-0.114
ACTTGACC	-0.0993
AGGACCCG	-0.288
AGATACGG	0.372
AGCCGCAT	-0.176
ACGCTCGA	-0.0402

Sequence	binding signal [E-score]
AAGCAAAT	0.207
AATCGTCC	0.248
ACGTCTCT	-0.161
AGCTAGTG	-0.1
AATTGGTA	0.0772
ACATCGAT	0.241
AAGGCTGC	-0.183
AATCCGCC	0.372
AATTACGT	0.26
AGCTACGA	-0.0607
ATTGTTTA	0.0143
ACGCAAAC	-0.0569
ATCCCCTC	0.158
AACCGGTG	-0.281
AAGGAATG	-0.053
AAAAGTCG	0.11
AATAAATC	0.253
ATTAAGGC	-0.0256
AGGATATA	0.211
CAAGATCC	0.33
AGGCTGGC	-0.226
AAGCCTTC	-0.285
AACTTAAT	-0.0539
AATGCTAG	-0.0722
ATTACGTA	0.354

Sequence	binding signal [E-score]
ACCGGCAT	-0.0583
CACCTCTG	-0.142
AATTATAA	0.243
AAATGGCC	-0.224
ACTGATGC	-0.0669
ACTAAGGA	-0.0523
AGTTCGCA	-0.0679
ATTGGAGG	-0.128
AGCCGGAG	-0.306
AACAGAAT	0.301
ATTTGTTC	0.112
ACAACCAA	0.0747
AAACTGTC	-0.122
ATTTATGA	0.182
AGCGGGGA	0.00918
CAATTTAA	0.0461
AGTGCCTC	-0.298
AACCAGCC	-0.113
ATCGCATA	0.272
AAGAGAAT	0.321
ACTCGTGG	-0.0478
ATGGTGCA	0.00205
ATATGCAA	0.29
AGTTAATG	-0.0381
AGAAGGTC	-0.284

Sequence	binding signal [E-score]
AGTGGACC	-0.083
AGGTGCCG	-0.249
ACCTCCAT	-0.0569
ACACGAGC	-0.0756
AGCCGGTC	-0.29
ACATGACT	-0.0456
ACCTAAGA	-0.106
ACACAGCA	0.00236
AGGAACGG	-0.0555
AGGCGGAG	-0.214
AGCCGTCG	-0.286
AAGAGAGG	-0.197
AATCTCGT	0.436
ACTCGGGG	-0.056
ACCCTAAG	-0.152
ACAGGACG	-0.177
ATGTCTCA	0.067
AGCGCGCT	0.0892
AACAGCAT	0.0551
AAATCAGG	0.365
AGTCCGGA	-0.0362
AGCATCAT	0.092
AACGGGGC	-0.0659
ACTTCTCC	-0.0954
AGGCTCTG	-0.0622

Sequence	binding signal [E-score]
ATGTGTTG	0.00462
ATGCTAAT	0.121
ACGATACA	0.01
ACATCCCA	-0.000568
CACCTGTC	-0.206
AGTCTGTA	0.0388
ACTCACAC	-0.175
ACTGTACT	-0.136
AGGGTGGA	-0.0254
ATGTGGCG	-0.107
CAAGAGGC	-0.282
AAGATCGA	0.225
ATCCAACG	0.172
ACCATAGC	-0.12
ACCAATAA	0.000427
CAAATTTG	0.18
ACTCAACC	-0.0527
ACTTAGCA	-0.0836
AACGCTTG	0.0185
AGGGAACA	-0.115
ATCTACGC	0.241
AAGGGTAG	-0.212
ACGCACCG	-0.0837
CAAGGGCC	-0.281
AGGTCAGA	-0.129

Sequence	binding signal [E-score]
AACCAATC	0.122
CACGAGAC	-0.0715
AGAGCTAT	-0.0467
AGCTAGCC	-0.231
AAATTAGA	0.195
AGGGCATA	-0.121
AAAACGTC	-0.00404
ATATGGCG	0.123
CAAGTCCG	-0.132
ACACATGT	-0.22
AAAATTGG	0.0756
AATTGACT	-0.16
ACTGACCG	-0.219
AAGAATAG	-0.077
ACGAATCT	0.403
AATCCGCA	0.395
AAACACTC	-0.146
AAGATTAC	0.454
AAGGCATT	-0.114
ACTTGTAT	0.0481
AGTGGGTC	-0.348
ATGCAGAG	-0.0248
